Experimental data reported in PubChem BioAssay AID1508624 (National Center for Advancing Translational Sciences (NCATS), 2021).
The campaign covered roughly 48,000 compounds. About 120 (0.25%) were called active. Another 4% or so got no clear call; they are omitted. Calls come from the whole dose curve; as a rule, active = well fitted activation curve with a large enough effect; inconclusive = small, poorly fitted or top-dose-only effect, or another doubt; inactive = no such curve, though single readings can be large or run the other way. The list shows a part of the results.

Assay: Primary qHTS for Identification of Small Molecule Activators of Huntingtin-Antisense Promoter Activity; note: nearly all actives have a fitted effect of over 55% in size
Settings: HEK293 HTT-AS promoter firefly luciferase reporter (activity 0% = vehicle and -100% = no light), 24 h; series mostly up to 57.5 µM; activity change, positive = activation: at the top concentration
Method in brief: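 Luminescence was read after Dual-Glo reagent and a 10 min room-temperature incubation. Values were normalized to vehicle (0% activity) and zero RLU (-100% activity). Reporter HEK293 cells had been exposed to compounds (up to 57.5 uM final) for 24 h.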

Activity change, positive = activation, inactive:
Cc1ccc(NC(=O)Cn2cnc3nc4c(cc3c2=O)CCCC4)cc1Cl 2.54%
Cc1cc(=O)n2nc(N3CCC(C(=O)NCc4ccccc4)CC3)sc2n1 -5.83%
COc1ccc2cc(C(=O)NCc3ccc4c(c3)CCN4C(=O)c3ccccc3)[nH]c2c1 14.5%
CCn1c(=O)cc(SCC(=O)NCc2ccccc2OC)c2ccccc21 1.42%
Cc1cccc(C(=O)NC(=O)Nc2ccc(-c3cc(C(F)(F)F)nn3-c3ccccc3)cc2)c1 -25.7%
COc1ccc(C(=O)Nc2ccc(OCc3cc(=O)n4ccsc4n3)cc2)cc1OC 0.958%
O=C(NCc1cccnc1)C(=O)NCC(c1cccnc1)N1CCN(c2ccccc2F)CC1 (stereo not given) -33.4%
O=C(Cn1cc(C(=O)c2ccco2)c2ccccc21)Nc1ccccc1Cl -25.8%
Cc1cc(C)c2c(=O)cc(C(=O)Nc3ccc(S(=O)(=O)N(C)Cc4ccccc4)cc3)oc2c1 -12%
O=C(C1CCN(S(=O)(=O)c2cccc3nonc23)CC1)N1CCN(c2ccccc2F)CC1 -27.6%
Cc1nn(-c2ccc(F)cc2)c(-n2cccc2)c1C(=O)NCCCN1CCN(c2cccc(Cl)c2)CC1 -44.4%
O=c1[nH]c2ccccc2c(=O)n1CCCl -3.05%
COc1cc(NC(=O)C2CCCN(S(=O)(=O)c3ccc4c(c3)CCCC(=O)N4)C2)cc(OC)c1 (stereo not given) -15%
COc1cc(Cl)c(C)cc1NC(=O)Cn1ncc2c(=O)oc3ccccc3c21 -7.13%
CCC(C(=O)OC)n1cnc2c(cnn2-c2ccc(F)cc2)c1=O (stereo not given) -2.65%
COc1ccc(-c2nc(SCC(=O)c3ccc(OC)c(Br)c3)n[nH]2)cc1 -32.7%
CSc1ncc(Cl)c(C(=O)Nc2ccc(S(=O)(=O)N3CCCC(C)C3)cc2)n1 (stereo not given) -39.5%
CCCC(=O)O[C@]1(C(=O)CO)CC[C@H]2[C@@H]3CCC4=CC(=O)CC[C@]4(C)[C@H]3[C@@H](O)C[C@@]21C -15.1%
CCC(Sc1nc2nccnc2c(=O)n1Cc1ccc(F)cc1)C(=O)NC1CCCCC1 (stereo not given) -10.1%
CCc1cccc(NC(=O)C2CCC(CNS(=O)(=O)c3csc(C(N)=O)c3)CC2)c1 (stereo not given) 1.07%
CCOc1cccc(C2c3[nH]c4ccccc4c3CCN2C(=O)CCC2CCCC2)c1 (stereo not given) -31.1%
Fc1cc(F)c2ncc3c(-c4ccccc4)nn(-c4cccc(Cl)c4)c3c2c1 -13%
CC(C)OCCCNC(=O)C(=O)Nc1ccc2nc3n(c(=O)c2c1)CCCCC3 4.43%
Cc1cccc(Cn2c(=O)n(Cc3ccccc3)c(=O)c3oc4ccccc4c32)c1 -11.8%
Cc1ccccc1NC(=O)C1CCN(C(=O)c2cnn(-c3ccccc3)c2-n2cccc2)CC1 -19.7%
Cc1ccc(Sc2ccc(N3CCC(C(=O)Nc4ccc(C)c(F)c4)CC3)nn2)cc1 -4.19%
COc1cc(NC(=O)N(Cc2ccco2)C2CCN(C(C)=O)CC2)cc(OC)c1OC -7.18%
Cc1cccc(-c2nc3nc(C)cc(NCc4ccccc4Cl)n3n2)c1 -26.3%
COc1ccc(-c2cc(C(F)(F)F)nc(-n3nc(C(F)(F)F)cc3C)n2)cc1 9.1%
CC1CCN(c2oc(-c3ccc(COc4ccccc4)o3)nc2C#N)CC1 -25.7%
CCc1ccc(-n2c(N3CCN(c4cccc(Cl)c4)CC3)nc3ccccc3c2=O)cc1 -22.9%
Cc1ccc(-n2c(SCC(=O)NCc3ccccc3)nc3n[nH]c(C)c3c2=N)cc1Cl -28.2%
O=C(NCC(c1cccs1)S(=O)(=O)c1cccs1)c1ccc(Cl)cc1 (stereo not given) -21.3%
Nc1nnc(SCC(=O)Nc2ccccc2)s1 15.1%
COc1cccc(NC(=O)Cn2c(=O)n(CC(=O)NCc3ccc(C)cc3)c(=O)c3sccc32)c1 -39.6%
Cc1ccc2nc(-c3c[nH]c4ccccc34)c(Nc3ccccc3C)n2c1 4.2%
Cc1ccc(C(c2ccccc2)c2c(C)[nH]c3ccccc23)s1 (stereo not given) -33.5%
Cc1cc(C)c(NC(=O)CN2C(=O)c3cccnc3Oc3ccc(C)cc32)c(C)c1 -12.8%
Cc1ccc(-c2cc(NC(=O)COc3ccc(Cl)c(C)c3)on2)cc1 32.9%
CCN1CCN(C(=O)Cn2ncc3c4ccccc4n(Cc4ccccc4)c3c2=O)CC1 -6.98%
Cc1ccc(/C=C/C(=O)Nc2ccc(S(N)(=O)=O)cc2)o1 10.7%
Cc1cc(C)c(Cn2c3ccccc3c3cnn(CC(=O)NCc4ccccn4)c(=O)c32)c(C)c1 -31.9%
Cn1cncc1[C@@](N)(c1ccc(Cl)cc1)c1ccc2c(c1)c(-c1cccc(Cl)c1)cc(=O)n2C -36.4%
Cc1nnc(SCC2=C(C(=O)O)N3C(=O)[C@@H](NC(=O)Cn4cnnn4)[C@H]3SC2)s1 1.98%
O=C(CCS(=O)(=O)c1ccc(Br)cc1)Nc1ccc(Cl)c(C(F)(F)F)c1 -39.6%
COc1ccccc1CCNC(=O)C(=O)NCC(c1cccs1)S(=O)(=O)c1ccccc1 (stereo not given) -28.8%
CCOC(=O)c1cccc(NC(=O)c2cn(-c3cccc(OC)c3)c(=O)c3ccccc23)c1 -9.98%
CCCCN(C)CCCNC(=O)Cn1ncc2c3ccccc3n(Cc3ccccc3F)c2c1=O -12.4%
COc1ccc(NC(=O)Cn2c(=O)oc3cc(S(=O)(=O)NCc4ccccc4)ccc32)c(OC)c1 -31%
COc1ccc(NS(=O)(=O)c2cc3c(cc2C)NC(=O)CO3)c(OC)c1 -13%
O=C(CSC1=Nc2ccccc2C2=NC(Cc3ccccc3)C(=O)N12)Nc1ccccc1C(F)(F)F (stereo not given) 0.224%
COc1cc(NC(=O)C2CCN(S(=O)(=O)c3ccc4c(c3)oc(=O)n4C)CC2)cc(OC)c1 -18.5%
Cc1cn2c(=O)cc(COc3ccccc3NC(=O)c3ccc(C(C)(C)C)cc3)nc2s1 12.6%
Cc1cccc(CNC(=O)c2oc3c(c2C)-c2nn(Cc4cccc(Cl)c4)cc2CC3)c1 -21.4%
CCOc1ccc(CN2C(=O)c3ccccc3Sc3ccc(C(=O)NC)cc32)cc1 -29.3%
COC(=O)c1ccc2c(c1)N(CC(=O)Nc1cccc(Cl)c1C)C(=O)c1ccccc1S2 -6.56%
CC(C)NC(=O)Cn1c(=O)nc(-c2ccccc2F)c2cc(Cl)ccc21 -9.36%
CC(C)c1cnc2c(c1SCc1cccc(F)c1)c(=O)n(C)c(=O)n2C -22.3%
Cc1ccc(-c2nc3nc(C)cc(C)n3c2Nc2ccc3c(c2)OCCO3)cc1 18.1%
CC(=O)N1CCc2cc(Br)cc(S(=O)(=O)N3CCC(C)CC3)c21 -18.6%
CCOc1ccc(NC(=O)Cn2c(=O)n(Cc3nc(-c4ccccc4)no3)c(=O)c3cc4c(cc32)OCO4)cc1 -14.4%
CC(=O)c1ccc(NC(=O)c2nc(-c3ccccc3)n(-c3ccc(Cl)cc3)n2)cc1 -24.5%
CCOC(=O)c1cc2c(=O)n3ccccc3nc2n(CCOC)c1=NC(=O)C(C)(C)Oc1ccc(Cl)cc1 -20.6%
Cc1nc2nc(NC(=O)C(C)(C)C)[nH]n2c(=O)c1Cc1ccccc1 12%
Cc1ccc(Cn2ccn(CC(=O)Nc3c(C)cc(C)cc3C)c(=O)c2=O)cc1 -15.9%
O=c1[nH]c(=O)n([C@H]2C[C@H](O)[C@@H](CO)O2)cc1C(F)(F)F -24.5%
CC(C)(C)OC(=O)N1CCC(c2c(C(=O)N3CCN(C(=O)c4ccco4)CC3)cnn2-c2cccc(Cl)c2)CC1 -27.8%
CC(=O)c1ccc(NC(=O)c2nc(-c3ccc(Cl)cc3)n3c2CCCCC3)cc1 -19.5%
COc1cccc(OCC(=O)NC2CC(=O)N(c3cccc(OC)c3)C2)c1 (stereo not given) 3.91%
COC(=O)c1cc(NC(=O)CC2C(=O)OCCN2Cc2ccccc2)cc(C(=O)OC)c1 (stereo not given) -6.18%
Cc1ccccc1CSc1nc2c(sc3ccccc32)c(=O)n1CCCC(=O)NCCCOC(C)C -1.13%
CS(=O)(=O)CC[C@@H](C(=O)NCCc1ccccc1)N1Cc2ccccc2C1=O -4.47%
Cc1cc(C)c2c(=O)cc(C(=O)Nc3sc4c(c3C(=O)NCc3ccco3)CCCC4)oc2c1 -2.08%
Cc1cccc(OCC(=O)N2CCC(c3nc4ccccc4o3)CC2)c1C -13.7%
COc1ccc(NC(=O)Cn2c(=O)c3ccccc3n3nncc23)cc1Cl 2.29%
NC(=O)N1c2ccccc2CC(=O)c2ccccc21
CN(c1nnc(NC(=O)Nc2ccccc2C(F)(F)F)s1)C1CCCCC1 18.7%
COCc1cc(C)nc2c1C(=O)NC(c1ccc(NC(C)=O)cc1)N2Cc1ccccc1 (stereo not given) -9.94%
CCc1ccc(OC(=O)CSc2nnc(-c3ccc(OC)c(OC)c3)o2)cc1 -22.5%
NC1=NCC2c3ccccc3Cc3ccccc3N12 (stereo not given) -2.51%
Cc1c2cnn(CC(=O)NC(C)C)c(=O)c2c(C)n1Cc1cccc(Cl)c1 -16.3%
COc1ccc(/C=C/c2nc(C#N)c(NCc3ccc(C)cc3)o2)cc1OC -21.5%
O=C(O)CCC(=O)O -1.93%
O=C(NCCc1ccccc1)c1ccc2c(c1)N(Cc1ccc(F)cc1Cl)C(=O)CS2 -14.4%
Cc1ccc(NC(=O)N2CCC3(CC2)Oc2ccccc2C(=O)N3Cc2ccc(F)cc2)cc1 21.1%
CC(Oc1ccccc1)C(=O)Nc1cccc(-c2cn3cccnc3n2)c1 (stereo not given) -0.829%
CCOc1nc(-c2ccccc2)ccc1-c1noc(-c2ccc(C)cc2)n1 -9.27%
CCOc1ccc(NC(=O)CC2C(=O)N(c3ccccc3)C(=O)N2CCc2sccc2C)cc1 (stereo not given) 4.93%
O=C(Cn1cc(SCc2cccc(Cl)c2)c2ccccc21)N1CCCCC1 7.55%
Cc1c(C(=O)OC2CCC(C)CC2)[nH]c2c1C(=O)CC(c1ccc(N(C)C)cc1)C2 (stereo not given) -14.4%
COc1ccc(S(=O)(=O)c2c(C(=O)c3ccc(C)c(C)c3)cnc3ccc(C)cc23)cc1 -35%
Fc1ccc(-c2cc(-c3nc(-c4ccc(Cl)cc4)no3)[nH]n2)cc1 -6.53%
COc1cccc(/C=C/c2nc(C#N)c(NC3CCCCC3)o2)c1 -0.322%
CSc1ccc(CCNC(=O)Cn2c(C)c3cnn(-c4ccccc4)c(=O)c3c2C)cc1 -11.1%
COc1cccc(-n2c(=O)c3sc4ccccc4c3n(Cc3c(F)cccc3Cl)c2=O)c1 -3.42%
